From PubChem BioAssay AID720707 (National Center for Advancing Translational Sciences (NCATS), 2013)
About 270 (0.075%) of roughly 360,000 compounds were called active. Inconclusive means that the source gave no clear call. Such entries were picked first, then a sample of the others. Calls come from the whole dose curve; as a rule, active = well fitted activation curve with a large enough effect; inconclusive = small, poorly fitted or top-dose-only effect; inactive = no such curve, though single readings can be large or run the other way. A potency beside an inconclusive call is a rough fit, not a confirmed value.

The compounds below were run against Rap guanine nucleotide exchange factor 3 (Homo sapiens) (UniProt O95398) (assay: qHTS for Agonist of cAMP-regulated guanine nucleotide exchange factor 3 (EPAC1): primary screen). Conditions: biochemical assay; series mostly up to 154 µM.
Procedure, shortened: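 Fluorescent GDP-exchange assay: 100 nM EPAC1 with 250 nM Rap1B preloaded with BODIPY-GDP and 50 uM GDP; compounds tested as concentration series, 5 min at room temperature, then read every 5 min for 30 min (ex 480/em 540 nm); normalized to 6.5 mM cAMP.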
Note: nearly all actives have a fitted effect of over 60% in size.
Potency is the fitted concentration of half-maximal effect; tags give direction and shape of the fitted curve.

UniProt O95398, sequence (O95398 whole entry, looked up): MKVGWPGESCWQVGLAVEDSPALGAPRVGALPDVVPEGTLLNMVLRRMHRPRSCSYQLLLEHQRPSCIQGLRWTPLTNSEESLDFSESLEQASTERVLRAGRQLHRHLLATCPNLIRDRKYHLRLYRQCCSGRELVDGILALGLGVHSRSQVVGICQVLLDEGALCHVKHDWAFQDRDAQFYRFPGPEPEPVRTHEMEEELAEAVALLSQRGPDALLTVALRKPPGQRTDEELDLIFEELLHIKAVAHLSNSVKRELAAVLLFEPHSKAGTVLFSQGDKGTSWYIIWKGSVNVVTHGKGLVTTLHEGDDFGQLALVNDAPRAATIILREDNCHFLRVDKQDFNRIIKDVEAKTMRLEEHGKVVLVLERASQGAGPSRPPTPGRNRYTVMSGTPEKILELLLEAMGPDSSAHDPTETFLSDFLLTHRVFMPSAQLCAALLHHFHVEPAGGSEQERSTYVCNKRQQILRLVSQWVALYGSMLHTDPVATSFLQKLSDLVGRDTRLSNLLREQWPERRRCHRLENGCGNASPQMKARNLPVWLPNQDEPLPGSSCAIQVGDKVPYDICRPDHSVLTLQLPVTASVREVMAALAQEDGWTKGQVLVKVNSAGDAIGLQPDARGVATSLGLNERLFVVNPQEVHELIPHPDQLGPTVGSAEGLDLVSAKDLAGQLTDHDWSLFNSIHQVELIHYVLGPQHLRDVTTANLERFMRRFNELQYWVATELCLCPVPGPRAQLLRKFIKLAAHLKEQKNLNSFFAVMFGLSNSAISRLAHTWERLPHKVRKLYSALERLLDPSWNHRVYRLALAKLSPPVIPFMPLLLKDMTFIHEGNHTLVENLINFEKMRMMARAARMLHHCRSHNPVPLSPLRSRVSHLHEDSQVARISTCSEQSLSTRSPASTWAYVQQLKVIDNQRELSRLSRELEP

Potency, active:
CCOc1ccccc1NC(=O)C1CCN(c2nc(-c3ccc(OC)cc3)no2)CC1 112 µM

Potency, inactive:
CC1CCC(N2CCN(S(C)(=O)=O)CC2)CC1 (stereo not given)
COCCNC(=O)C1(C)CCCN(Cc2csc(-c3ccc(Cl)cc3)n2)C1 (stereo not given)
CCCCSc1nc(C)[nH]c1[N+](=O)[O-]
COc1cc(NC(=S)Nc2ccc3c(c2)OCCO3)cc(OC)c1OC
Cc1csc2c(N3CCN(C(=O)Nc4ccc(OC(F)(F)F)cc4)CC3)ncnc12
N#C/C(=C\c1ccc(F)cc1)C(=O)Nc1ccccn1

Potency, inconclusive:
CC1=C(C#N)C(c2cn(-c3ccccc3)nc2-c2cccs2)C(C#N)=C(C)N1 112 µM [activator, partial curve]
Cc1cccc2sc(NC(=O)CN(C)S(=O)(=O)c3ccc(Br)s3)nc12 112 µM [activator, partial curve]
COCCCn1c(=O)/c(=C\c2ccc(OC(F)F)c(OC)c2)s/c1=C(/C#N)C(N)=O 126 µM [activator, single point]
CN(C)c1ccc(/C=C2\SC(=O)N(CC(O)Cn3c4ccccc4c4ccccc43)C2=O)cc1 (stereo not given) 70.8 µM [activator, partial curve, poor fit]
O=[N+]([O-])c1cccc(S(=O)(=O)Nc2cccc(-c3ccc(N4CCCC4)nn3)c2)c1 126 µM [activator, partial curve, poor fit]
O=C1c2ccccc2-c2onc3ccc(NCc4ccco4)c1c23 126 µM [activator, single point]
O=C1CCC2CN3CCc4c([nH]c5ccccc45)C3CC2C1 (stereo not given) 100 µM [activator, single point]
Nc1nnc(-c2cccc(F)c2)s1 126 µM [activator, single point]
COc1ccc(S(=O)(=O)NNC(=O)Nc2ccc(C)cc2C)c(OC)c1 50.1 µM [activator, single point]
Cc1ccc(C(=O)NNC(=O)c2ccccc2O)cc1S(=O)(=O)N1CCCCC1 44.7 µM [activator, single point]
O=C(COC(=O)Cc1c(Cl)cccc1Cl)NCC1CCCO1 (stereo not given) 112 µM [activator, single point]
CC(Sc1ccccc1)C(=O)NNC(=O)c1csc(N2CCOCC2)n1 (stereo not given) 126 µM [activator, partial curve, poor fit]
O=C(OC1CCCCC1=O)c1cccc(S(=O)(=O)N2CCCCC2)c1 (stereo not given) 50.1 µM [activator, single point]
